Assay results published in PubChem BioAssay AID1745853 (National Center for Advancing Translational Sciences (NCATS), 2022).
This is one part of the list. These are further read-outs of the screen, such as a control signal, another cell line or another target. No call is given for them.

What was measured:
Test in all cases: Primary Screen for Target Class Profiling of Small Molecule Inhibitors of Methyltransferases
[1] = biological target: Glycine N-methyltransferase (Homo sapiens) (UniProt Q14749); details: purified enzyme, MTase-Glo SAH luminescence; measured here: GNMT inhibition; at 40 µM; stronger effect = lower value
Procedure, shortened: (§1)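 Each enzyme was reacted with SAM and its substrate, with compounds tested once at 40 uM; SAH formed was read by MTase-Glo luminescence.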

[2] = biological target: Guanidinoacetate N-methyltransferase (Homo sapiens) (UniProt Q14353); details: purified enzyme, MTase-Glo SAH luminescence; measured here: GAMT inhibition; at 40 µM; stronger effect = lower value
Procedure, shortened: as §1

[3] = biological target: Histamine N-methyltransferase (Homo sapiens) (UniProt P50135); details: purified enzyme, MTase-Glo SAH luminescence; measured here: HNMT inhibition; at 40 µM; stronger effect = lower value
Procedure, shortened: as §1

[4] = biological target: Nicotinamide N-methyltransferase (Homo sapiens) (UniProt P40261); details: purified enzyme, MTase-Glo SAH luminescence; measured here: NNMT inhibition; at 40 µM; stronger effect = lower value
Procedure, shortened: as §1

[5] = biological target: Phenylethanolamine N-methyltransferase (Homo sapiens) (UniProt P11086); details: purified enzyme, MTase-Glo SAH luminescence; measured here: PNMT inhibition; at 40 µM; stronger effect = lower value
Procedure, shortened: as §1
On the % scale 0 is the no-effect control and ±100 the full control effect.

## O=C(Nc1ccccc1)N1Cc2c(sc3c2CCCC3)-n2cccc2C1c1ccccc1 (stereo not given)
[1]
  activity change, negative = inhibition: -0.964%
[2]
  activity change, negative = inhibition: 0.085%
[3]
  activity change, negative = inhibition: 2.98%
[4]
  activity change, negative = inhibition: -2.84%
[5]
  activity change, negative = inhibition: 3.78%

## CCCn1c(=O)c2cc(Cl)ccc2n2c(=O)n(CC(=O)c3ccc(C)cc3)nc12
[1]
  activity change, negative = inhibition: 9.18%
[2]
  activity change, negative = inhibition: 0.043%
[3]
  activity change, negative = inhibition: 4.88%
[4]
  activity change, negative = inhibition: 10%
[5]
  activity change, negative = inhibition: 8.19%

## COC(=O)c1cc2n(n1)CCCN(C(=O)c1cc(C)nc3ccc(C)cc13)C2
[1]
  activity change, negative = inhibition: -1.02%
[2]
  activity change, negative = inhibition: -6.65%
[3]
  activity change, negative = inhibition: 0.168%
[4]
  activity change, negative = inhibition: -8.13%
[5]
  activity change, negative = inhibition: -5.22%

## Fc1ccccc1OCc1nc(C2CCCNC2)no1 (stereo not given)
[1]
  activity change, negative = inhibition: -4.42%
[2]
  activity change, negative = inhibition: -10.2%
[3]
  activity change, negative = inhibition: -4.97%
[4]
  activity change, negative = inhibition: -10%
[5]
  activity change, negative = inhibition: -13%

## Cc1ccc(C(=O)N2CC[C@H](N3CCN(C)CC3)[C@H](CCCO)C2)cc1C
[1]
  activity change, negative = inhibition: -4.5%
[2]
  activity change, negative = inhibition: -3.85%
[3]
  activity change, negative = inhibition: -2.08%
[4]
  activity change, negative = inhibition: -5%
[5]
  activity change, negative = inhibition: 7.66%

## O=C(CCn1ccn2nc3c(c2c1=O)CCCC3)NCc1ccc(F)c(Cl)c1
[1]
  activity change, negative = inhibition: -3.77%
[2]
  activity change, negative = inhibition: 1.59%
[3]
  activity change, negative = inhibition: 0.035%
[4]
  activity change, negative = inhibition: -17.2%
[5]
  activity change, negative = inhibition: 12.9%

## CSc1ccc(-c2cccc(C(=O)NCC(=O)N3CCOCC3)c2)cc1
[1]
  activity change, negative = inhibition: -4.5%
[2]
  activity change, negative = inhibition: 1.81%
[3]
  activity change, negative = inhibition: -5.41%
[4]
  activity change, negative = inhibition: -6.44%
[5]
  activity change, negative = inhibition: 7.88%

## Cc1c(OCc2ccc(C(=O)O)o2)ccc2c(-c3ccccc3)cc(=O)oc12
[1]
  activity change, negative = inhibition: -41.5%
[2]
  activity change, negative = inhibition: -5.92%
[3]
  activity change, negative = inhibition: -2.8%
[4]
  activity change, negative = inhibition: -16.1%
[5]
  activity change, negative = inhibition: -29.8%

## C[C@@H]1CN(Cc2ncccn2)C[C@H]1c1nc2c(cnn2C2CCOCC2)c(=O)[nH]1
[1]
  activity change, negative = inhibition: -4.28%
[2]
  activity change, negative = inhibition: -9.88%
[3]
  activity change, negative = inhibition: -6.61%
[4]
  activity change, negative = inhibition: -17.5%
[5]
  activity change, negative = inhibition: -9.22%

## Cc1cc2c(cc1S(=O)(=O)Nc1cccc(C)c1C)n(C)c(=O)n2C
[1]
  activity change, negative = inhibition: -4.79%
[2]
  activity change, negative = inhibition: 3.06%
[3]
  activity change, negative = inhibition: -10.4%
[4]
  activity change, negative = inhibition: -11.3%
[5]
  activity change, negative = inhibition: -6.16%

## CC(C)CCNC(=O)C1(C)Cn2nc(C(=O)NCCc3ccco3)cc2C(=O)N1C (stereo not given)
[1]
  activity change, negative = inhibition: 6.76%
[2]
  activity change, negative = inhibition: 7.38%
[3]
  activity change, negative = inhibition: 0.157%
[4]
  activity change, negative = inhibition: 8.51%
[5]
  activity change, negative = inhibition: 2.34%

## Clc1ccc(Nc2nnc(Cc3ccncc3)c3ccccc23)cc1
[1]
  activity change, negative = inhibition: -7.71%
[2]
  activity change, negative = inhibition: -8.66%
[3]
  activity change, negative = inhibition: -1.12%
[4]
  activity change, negative = inhibition: -30.5%
[5]
  activity change, negative = inhibition: -3.81%

## CCc1ccc(N2C(=O)c3cc(-c4ccccc4)nn3CC2(C)C(=O)NCCCOC)cc1 (stereo not given)
[1]
  activity change, negative = inhibition: 1.37%
[2]
  activity change, negative = inhibition: 4.03%
[3]
  activity change, negative = inhibition: -1.98%
[4]
  activity change, negative = inhibition: 5.54%
[5]
  activity change, negative = inhibition: -10.1%

## CC1(C)CCC2(C(=O)OC3OC(COC4OC(CO)C(O)C(O)C4O)C(O)C(O)C3O)CCC3(C)C(=CCC4C5(C)CCC(OC6OCC(O)C(O)C6O)C(C)(C)C5CCC43C)C2C1O (stereo not given)
[1]
  activity change, negative = inhibition: 0%
[2]
  activity change, negative = inhibition: -11.2%
[3]
  activity change, negative = inhibition: 0.005%
[4]
  activity change, negative = inhibition: -21.6%
[5]
  activity change, negative = inhibition: -0.357%

## Cc1cc(O)c2c(c1)C(=O)c1cc(O)cc(O)c1C2=O
[1]
  activity change, negative = inhibition: -61.7%
[2]
  activity change, negative = inhibition: -21.1%
[3]
  activity change, negative = inhibition: -41%
[4]
  activity change, negative = inhibition: -29.3%
[5]
  activity change, negative = inhibition: -26.2%

## O=C1NC(=O)/C(=C/c2cccc(C(F)(F)F)c2)S1
[1]
  activity change, negative = inhibition: -20.3%
[2]
  activity change, negative = inhibition: 12.8%
[3]
  activity change, negative = inhibition: 4.23%
[4]
  activity change, negative = inhibition: -16.5%
[5]
  activity change, negative = inhibition: 2.5%

## Cc1cc(C)cc(N2C(=O)c3ccccc3CC2(C)C(=O)NCc2ccccc2)c1 (stereo not given)
[1]
  activity change, negative = inhibition: -0.992%
[2]
  activity change, negative = inhibition: 4.17%
[3]
  activity change, negative = inhibition: -0.184%
[4]
  activity change, negative = inhibition: -2.63%
[5]
  activity change, negative = inhibition: -1.64%
